{
  "sequences": {"note": "Protein sequences, listed by entry. Tags and fused reporters are not part of them.", "UniProt P00520": "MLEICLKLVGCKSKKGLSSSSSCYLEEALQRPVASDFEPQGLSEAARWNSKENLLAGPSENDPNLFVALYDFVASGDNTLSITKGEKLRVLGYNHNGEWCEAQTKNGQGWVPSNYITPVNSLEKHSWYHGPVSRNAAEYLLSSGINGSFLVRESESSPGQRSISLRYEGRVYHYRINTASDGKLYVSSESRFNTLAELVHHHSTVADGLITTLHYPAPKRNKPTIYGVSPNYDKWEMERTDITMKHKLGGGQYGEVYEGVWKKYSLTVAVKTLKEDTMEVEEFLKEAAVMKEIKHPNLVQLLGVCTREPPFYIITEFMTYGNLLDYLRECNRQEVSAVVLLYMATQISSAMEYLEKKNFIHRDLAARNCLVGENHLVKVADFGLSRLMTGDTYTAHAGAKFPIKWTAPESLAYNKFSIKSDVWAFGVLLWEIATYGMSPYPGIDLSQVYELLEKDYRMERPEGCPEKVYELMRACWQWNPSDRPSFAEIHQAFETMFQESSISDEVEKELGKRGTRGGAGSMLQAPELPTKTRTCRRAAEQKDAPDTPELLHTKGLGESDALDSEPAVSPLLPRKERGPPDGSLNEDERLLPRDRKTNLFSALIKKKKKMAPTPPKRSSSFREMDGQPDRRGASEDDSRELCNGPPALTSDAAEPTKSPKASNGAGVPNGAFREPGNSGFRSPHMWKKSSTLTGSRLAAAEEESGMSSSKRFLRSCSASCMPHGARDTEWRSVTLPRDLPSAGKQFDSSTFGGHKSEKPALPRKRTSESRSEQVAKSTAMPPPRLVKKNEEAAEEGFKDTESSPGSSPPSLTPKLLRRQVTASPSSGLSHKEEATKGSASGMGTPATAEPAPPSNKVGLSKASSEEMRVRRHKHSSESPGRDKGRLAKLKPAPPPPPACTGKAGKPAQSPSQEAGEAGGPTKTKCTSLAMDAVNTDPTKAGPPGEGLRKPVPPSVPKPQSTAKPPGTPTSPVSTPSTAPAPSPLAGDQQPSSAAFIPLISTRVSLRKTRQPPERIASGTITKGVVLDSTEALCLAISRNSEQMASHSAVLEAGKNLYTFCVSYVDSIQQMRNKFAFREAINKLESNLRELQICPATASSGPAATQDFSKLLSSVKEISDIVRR", "UniProt Q61188": "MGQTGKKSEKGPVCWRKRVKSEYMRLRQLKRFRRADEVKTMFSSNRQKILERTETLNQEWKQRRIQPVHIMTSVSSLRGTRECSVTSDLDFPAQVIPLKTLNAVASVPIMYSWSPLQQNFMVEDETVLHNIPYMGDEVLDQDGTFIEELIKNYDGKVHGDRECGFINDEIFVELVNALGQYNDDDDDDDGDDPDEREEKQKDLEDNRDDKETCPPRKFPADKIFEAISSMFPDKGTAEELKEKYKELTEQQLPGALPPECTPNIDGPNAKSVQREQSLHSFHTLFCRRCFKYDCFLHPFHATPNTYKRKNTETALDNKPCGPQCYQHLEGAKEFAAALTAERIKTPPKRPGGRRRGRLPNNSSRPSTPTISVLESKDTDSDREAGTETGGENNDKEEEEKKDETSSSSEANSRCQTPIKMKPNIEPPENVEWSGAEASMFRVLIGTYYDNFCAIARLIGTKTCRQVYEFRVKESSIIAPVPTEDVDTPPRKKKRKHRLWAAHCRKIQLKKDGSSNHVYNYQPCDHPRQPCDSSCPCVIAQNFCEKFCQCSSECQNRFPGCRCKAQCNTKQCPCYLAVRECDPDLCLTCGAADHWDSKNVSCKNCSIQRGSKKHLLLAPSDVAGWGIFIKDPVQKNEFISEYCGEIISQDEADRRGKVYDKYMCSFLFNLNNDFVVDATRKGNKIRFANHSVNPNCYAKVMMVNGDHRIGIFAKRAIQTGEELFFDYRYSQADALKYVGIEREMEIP", "UniProt Q9CQJ4": "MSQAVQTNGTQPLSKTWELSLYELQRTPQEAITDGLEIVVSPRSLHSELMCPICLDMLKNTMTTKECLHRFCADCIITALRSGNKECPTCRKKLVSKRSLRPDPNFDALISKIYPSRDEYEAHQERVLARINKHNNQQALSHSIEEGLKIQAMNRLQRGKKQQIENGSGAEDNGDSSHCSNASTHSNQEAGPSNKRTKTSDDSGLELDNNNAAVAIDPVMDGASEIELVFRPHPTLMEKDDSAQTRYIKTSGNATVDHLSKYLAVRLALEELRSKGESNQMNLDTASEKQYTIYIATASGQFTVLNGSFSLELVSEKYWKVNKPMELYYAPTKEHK"},
  "source": "paper PMC9160250",
  "about": "“Nuclear Vav3 is required for polycomb repression complex-1 activity in B-cell lymphoblastic leukemogenesis” (Nature Communications, 2022)",
  "molecules": {"B1": {"name": "Vav3 (protein, UniProt Q9R0C8 1-847)", "chain": "MEPWKQCAQWLIHSKVLPPNHRVTWDSAQVFDLAQTLRDGVLLCQLLNNLRPHSINLKEINLRPQMSQFLCLKNIRTFLAACCDTFGMRKSELFEAFDLFDVRDFGKVIETLSRLSRTPIALATGIRPFPTEESINDEDIYKGLPDLIDETRVEDEEDLYDCVYGEDEGGEVYEDLMKAEEAQQPKSQENDIRSCCLAEIRQTEEKYTETLESIEKYFMAPLKRFLTAAEFDSVFINIPDLVKVHRSLMQEIHDSIVNKDDQNLYQVFINYKERLVIYGQYCSGVESAISNLDYISKTKEDVKLKLEECSKRANNGKFTLRDLLVVPMQRVLKYHLLLQELVKHTHDPMEKANLKLALDAMKDLAQYVNEVKRDNETLREIKQFQLSIENLNQPVLLFGRPQGDGEIRITTLDKHTKQERHIFLFDLAVIVCKRKGDNYEMKEIIDLQQYKIANNPTTDKENKKWSYGFYLIHTQGQNGLEFYCKTKDLKKKWLEQFEMALSNIRPDYADSNFHDFKMHTFTRVTSCRVCQMLLRGTFYQGYLCFKCGAKAHKECLGRVDNCGRVNSVEQGPFKPPEKRTNGLRRASRQVDPGLPKMQVIRNYTGTPAPGLHEGPPLHIQAGDTVELLRGDAHSVFWQGRNLASGEVGFFPSDAVKPSPCVPKPVDYSCQPWYAGPMERLQAETELINRVNSTYLVRHRTKESGEYAISIKYNNEAKHIKILTRDGFFHIAENRKFKSLMELVEYYKHHSLKEGFRTLDTTLQFPYKEPEQPAGQRGNRTGNSLLSPKVLGIAIARYDFCARDMRELSLLKGDMVKIYTKMSANGWWRGEVNGRVGWFPSTYVEEDE"}, "B2": {"name": "Bmi1 (protein, UniProt P25916 1-324)", "chain": "MHRTTRIKITELNPHLMCVLCGGYFIDATTIIECLHSFCKTCIVRYLETSKYCPICDVQVHKTRPLLNIRSDKTLQDIVYKLVPGLFKNEMKRRRDFYAAHPSADAANGSNEDRGEVADEEKRIITDDEIISLSIEFFDQSRLDRKVNKEKPKEEVNDKRYLRCPAAMTVMHLRKFLRSKMDIPNTFQIDVMYEEEPLKDYYTLMDIAYIYTWRRNGPLPLKYRVRPTCKRMKMSHQRDGLTNAGELESDSGSDKANSPAGGVPSTSSCLPSPSTPVQSPHPQFPHISSTMNGTSNSPSANHQSSFASRPRKSSLNGSSATSSG"}},
  "key": {"[1]": {"molecular_target": "T1, Vav3 (mouse (endogenous in Ba/F3 cells and murine B-cell progenitors)) (UniProt Q9R0C8)", "T1 sequence": "B1 chain", "test": "co-IP; cytoplasmic and nuclear fractions of empty vector or p190-BCR-ABL transduced Ba/F3 cells; anti-Vav3 or anti-Bmi1 antibody overnight at 4 °C, protein A/G Dynabeads 2 h, washed 3 times with 1X RIPA buffer; western blot"}, "[2]": {"molecular_target": "c-Abl (mouse (endogenous in murine B-cell progenitors)) (UniProt P00520)", "test": "proximity ligation; Duolink PLA with anti-Vav3 and anti-cAbl antibodies in B-cell progenitors from non-leukemic mice"}, "[3]": {"molecular_target": "T2, Bmi1 (mouse (endogenous in Ba/F3 cells and murine B-cell progenitors)) (UniProt P25916)", "T2 sequence": "B2 chain", "test": "proximity ligation; Duolink PLA with rabbit anti-Vav3 and mouse anti-Bmi1 antibodies in fixed, permeabilised empty vector or p190-BCR-ABL transduced Ba/F3 cells; confocal microscopy"}, "[4]": {"molecular_target": "T2, Bmi1 (mouse (endogenous in Ba/F3 cells and murine B-cell progenitors))", "test": "co-IP; cytoplasmic and nuclear fractions of empty vector or p190-BCR-ABL transduced Ba/F3 cells; anti-Vav3 or anti-Bmi1 antibody overnight at 4 °C, protein A/G Dynabeads 2 h, washed 3 times with 1X RIPA buffer; western blot"}, "[5]": {"molecular_target": "T2, Bmi1 (mouse (endogenous in Ba/F3 cells and murine B-cell progenitors))", "test": "proximity ligation; Duolink PLA in fixed, permeabilised primary murine B-cell progenitors on fibronectin-coated slides (empty vector or p190-BCR-ABL transduced; WT, Rac2-/-, or Vav3-/- transduced with empty vector, Vav3 FL or Vav3 N369A); confocal microscopy"}, "[6]": {"molecular_target": "T3, pleckstrin homology domain leucine-rich repeat protein phosphatase 2 (Phlpp2) (mouse (endogenous in murine B-cell progenitors)) (UniProt Q8BXA7)", "T3 sequence": "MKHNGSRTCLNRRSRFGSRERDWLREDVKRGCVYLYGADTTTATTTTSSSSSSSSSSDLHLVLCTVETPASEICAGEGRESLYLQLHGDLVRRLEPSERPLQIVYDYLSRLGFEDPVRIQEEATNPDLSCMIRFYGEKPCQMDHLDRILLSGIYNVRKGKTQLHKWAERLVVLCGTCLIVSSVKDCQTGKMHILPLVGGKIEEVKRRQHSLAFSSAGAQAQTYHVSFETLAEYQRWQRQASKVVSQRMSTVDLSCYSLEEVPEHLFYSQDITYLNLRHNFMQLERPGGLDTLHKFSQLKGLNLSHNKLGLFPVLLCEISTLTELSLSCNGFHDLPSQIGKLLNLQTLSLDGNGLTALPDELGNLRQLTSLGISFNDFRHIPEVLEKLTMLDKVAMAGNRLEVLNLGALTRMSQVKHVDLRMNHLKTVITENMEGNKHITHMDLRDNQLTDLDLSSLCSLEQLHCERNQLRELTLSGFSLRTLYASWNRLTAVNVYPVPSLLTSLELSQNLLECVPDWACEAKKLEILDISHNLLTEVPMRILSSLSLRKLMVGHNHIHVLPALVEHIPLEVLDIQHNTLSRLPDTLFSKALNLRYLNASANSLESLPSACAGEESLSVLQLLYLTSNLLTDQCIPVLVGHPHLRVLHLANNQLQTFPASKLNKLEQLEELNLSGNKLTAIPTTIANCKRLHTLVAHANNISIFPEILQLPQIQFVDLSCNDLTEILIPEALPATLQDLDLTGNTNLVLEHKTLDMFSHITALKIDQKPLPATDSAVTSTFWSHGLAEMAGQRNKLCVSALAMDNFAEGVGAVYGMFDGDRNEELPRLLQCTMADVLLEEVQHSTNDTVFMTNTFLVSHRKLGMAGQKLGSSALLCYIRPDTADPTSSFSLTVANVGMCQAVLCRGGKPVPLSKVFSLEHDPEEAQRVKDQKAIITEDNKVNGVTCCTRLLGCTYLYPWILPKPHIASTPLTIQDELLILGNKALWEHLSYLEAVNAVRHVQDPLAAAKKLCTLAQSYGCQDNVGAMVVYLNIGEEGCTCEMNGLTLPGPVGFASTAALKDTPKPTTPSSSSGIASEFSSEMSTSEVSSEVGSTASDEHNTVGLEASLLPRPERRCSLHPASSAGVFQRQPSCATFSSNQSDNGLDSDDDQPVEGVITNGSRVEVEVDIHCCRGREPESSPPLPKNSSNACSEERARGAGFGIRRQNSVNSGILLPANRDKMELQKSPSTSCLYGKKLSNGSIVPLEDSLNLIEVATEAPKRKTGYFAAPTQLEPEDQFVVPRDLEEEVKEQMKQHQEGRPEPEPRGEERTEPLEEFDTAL", "test": "proximity ligation; Duolink PLA in fixed, permeabilised primary murine B-cell progenitors on fibronectin-coated slides (empty vector or p190-BCR-ABL transduced; WT, Rac2-/-, or Vav3-/- transduced with empty vector, Vav3 FL or Vav3 N369A); confocal microscopy"}},
  "note": "Results are given in words; binding and its absence hold for the method and conditions named. Binding seen in cells or lysates may run through a third protein. Some entries that bind do so weakly or less than the wild type.",
  "data": [
    {"molecule": "Ezh2 (from UniProt Q61188 1-746)", "values": [
      {"measurement": "binding", "setting": "[1]", "result": "binds"}
    ]},
    {"molecule": "Ring1B (from UniProt Q9CQJ4 1-336)", "values": [
      {"measurement": "binding", "setting": "[1]", "result": "binds"}
    ]},
    {"molecule": "B1", "values": [
      {"measurement": "binding", "setting": "[2]", "result": "no binding"},
      {"measurement": "binding", "setting": "[3]", "result": "binds"},
      {"measurement": "binding", "setting": "[4]", "result": "binds"},
      {"measurement": "binding", "setting": "[5]", "result": "binds"},
      {"measurement": "binding", "setting": "[6]", "result": "binds"}
    ]},
    {"molecule": "B2", "values": [
      {"measurement": "binding", "setting": "[1]", "result": "binds"}
    ]}
  ]
}
